# Experimental data as given in the supplement of paper PMC10037445.
# The full ranking holds about 2,900 compounds; the median of “IRF Lucia reporter activity, fold change vs agonist alone” is about 0.9, and the highest 2% start at about 2.8. The list shows a part of the results.
# Columns and labels:
# [1] = system: RAW-Dual; assay: IRF Lucia reporter activity, fold change vs agonist alone; cytotoxicity flag (confluency mask): not cytotoxic; higher = enhanced IRF activity
# In short: (§1)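 Cytotoxic wells were those whose IncuCyte confluency was below 70% of agonist controls in both mask sets. The cells were RAW-Dual macrophages at 50,000 cells/well in DMEM on 384-well plates, dosed with 50 nL of library stock by pin tool, stimulated with a PRR agonist 1 h later, and kept at 37 °C, 5% CO2 for 20 hours. IRF and NF-κB reporter activity, as fold change over agonist-alone wells, came from supernatant read by QuantiLuc luminescence and QuantiBlue absorbance, respectively.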
# [2] = system: RAW-Dual; assay: IRF Lucia reporter activity, fold change vs agonist alone; higher = enhanced IRF activity; settings: agonist: MPLA (TLR4) […]
# In short: as §1
# [3] = system: RAW-Dual; assay: IRF Lucia reporter activity, fold change vs agonist alone; cytotoxicity flag (confluency mask): cytotoxic (confluency <70% of control); higher = enhanced IRF activity
# In short: as §1
# [4] = agonist: 3'3'-cGAMP (STING) 10 ug/mL
# [5] = library stock concentration (final ~1000-fold dilution): 10 mM, cytotoxicity flag (confluency mask): not cytotoxic
# [6] = library stock concentration (final ~1000-fold dilution): 10 mM water, cytotoxicity flag (confluency mask): not cytotoxic
# [7] = library stock concentration (final ~1000-fold dilution): 10 mM, cytotoxicity flag (confluency mask): cytotoxic (confluency <70% of control)
smiles,measurement,setting,value
O=C1NC(=O)C(c2ccccc2[N+](=O)[O-])=C1Nc1ccc(O)c(Cl)c1 (library stock concentration (final ~1000-fold dilution): 10 mM),IRF Lucia reporter activity,[1]; [4],0.579
same,IRF Lucia reporter activity,[1]; agonist: LPS (TLR4) 0.1 ug/mL,0.463
O=C1NC(=O)C(c2ccccc2[N+](=O)[O-])=C1Nc1ccc(O)c(Cl)c1,IRF Lucia reporter activity,[2]; [5],0.603
O=C1NC(=O)/C(=C/c2ccc3nccc(-c4ccncc4)c3c2)S1,IRF Lucia reporter activity,"[2]; library stock concentration (final ~1000-fold dilution): 2 mM, cytotoxicity flag (confluency mask): not cytotoxic",1.27
O=C1NC(=O)/C(=C/c2ccc3nccc(-c4ccncc4)c3c2)S1 (library stock concentration (final ~1000-fold dilution): 2 mM),IRF Lucia reporter activity,[1]; [4],0.64
same,IRF Lucia reporter activity,[1]; agonist: LPS (TLR4) 0.1 ug/mL,1.1
CCCc1ncc(C[n+]2ccccc2C)c(N)n1 (library stock concentration (final ~1000-fold dilution): 10 mM water),IRF Lucia reporter activity,[1]; [4],0.966
same,IRF Lucia reporter activity,[1]; agonist: LPS (TLR4) 0.1 ug/mL,0.958
CCCc1ncc(C[n+]2ccccc2C)c(N)n1,IRF Lucia reporter activity,[2]; [6],1.17
COCCOc1nc(-c2ccc(Cl)c(Cl)c2)n(-c2ccc(NC(=O)CCl)cc2)n1 (library stock concentration (final ~1000-fold dilution): 10 mM),IRF Lucia reporter activity,[1]; [4],0.0137
same,IRF Lucia reporter activity,[1]; agonist: LPS (TLR4) 0.1 ug/mL,0.0283
same,IRF Lucia reporter activity,[3]; [4],0.0112
same,IRF Lucia reporter activity,[3]; agonist: LPS (TLR4) 0.1 ug/mL,0.0112
COCCOc1nc(-c2ccc(Cl)c(Cl)c2)n(-c2ccc(NC(=O)CCl)cc2)n1,IRF Lucia reporter activity,[2]; [5],0.0249
CCC1(O)C(=O)OCc2c1cc1n(c2=O)Cc2cc3c(CN(C)C)c(O)ccc3nc2-1.Cl (stereo unspecified),IRF Lucia reporter activity,[2]; [7],3.1
CCC1(O)C(=O)OCc2c1cc1n(c2=O)Cc2cc3c(CN(C)C)c(O)ccc3nc2-1.Cl (stereo unspecified) (library stock concentration (final ~1000-fold dilution): 10 mM),IRF Lucia reporter activity,[3]; [4],2.13
same,IRF Lucia reporter activity,[3]; agonist: LPS (TLR4) 0.1 ug/mL,2.49
CC(=O)NC1C(NC(=N)N)C=C(C(=O)O)OC1C(O)C(O)CO (stereo unspecified) (library stock concentration (final ~1000-fold dilution): 10 mM water),IRF Lucia reporter activity,[1]; [4],1.34
same,IRF Lucia reporter activity,[1]; agonist: LPS (TLR4) 0.1 ug/mL,0.9
CC(=O)NC1C(NC(=N)N)C=C(C(=O)O)OC1C(O)C(O)CO (stereo unspecified),IRF Lucia reporter activity,[2]; [6],1.4
C=CCc1ccc(O)c(OC)c1 (library stock concentration (final ~1000-fold dilution): 10 mM),IRF Lucia reporter activity,[1]; [4],0.478
same,IRF Lucia reporter activity,[1]; agonist: LPS (TLR4) 0.1 ug/mL,0.888
COC(C(=O)N1Cc2[nH]nc(NC(=O)c3ccc(N4CCN(C)CC4)cc3)c2C1)c1ccccc1 (stereo unspecified),IRF Lucia reporter activity,[2]; [5],0.147
COC(C(=O)N1Cc2[nH]nc(NC(=O)c3ccc(N4CCN(C)CC4)cc3)c2C1)c1ccccc1 (stereo unspecified) (library stock concentration (final ~1000-fold dilution): 10 mM),IRF Lucia reporter activity,[1]; [4],0.149
same,IRF Lucia reporter activity,[1]; agonist: LPS (TLR4) 0.1 ug/mL,0.162
CCS(=O)(=O)O.COC(=O)c1ccc2c(c1)NC(=O)/C2=C(\Nc1ccc(N(C)C(=O)CN2CCN(C)CC2)cc1)c1ccccc1,IRF Lucia reporter activity,[2]; [5],0.215
CCS(=O)(=O)O.COC(=O)c1ccc2c(c1)NC(=O)/C2=C(\Nc1ccc(N(C)C(=O)CN2CCN(C)CC2)cc1)c1ccccc1 (library stock concentration (final ~1000-fold dilution): 10 mM),IRF Lucia reporter activity,[1]; [4],0.0841
same,IRF Lucia reporter activity,[1]; agonist: LPS (TLR4) 0.1 ug/mL,0.246
CS(=O)(=O)O.CS(=O)(=O)O.Cc1ccc(C(=O)Nc2ccc(CN3CCN(C)CC3)c(C(F)(F)F)c2)cc1C#Cc1cnc2[nH]ncc2c1,IRF Lucia reporter activity,[2]; [7],0.0201
CS(=O)(=O)O.CS(=O)(=O)O.Cc1ccc(C(=O)Nc2ccc(CN3CCN(C)CC3)c(C(F)(F)F)c2)cc1C#Cc1cnc2[nH]ncc2c1 (library stock concentration (final ~1000-fold dilution): 10 mM),IRF Lucia reporter activity,[3]; [4],0.00912
same,IRF Lucia reporter activity,[3]; agonist: LPS (TLR4) 0.1 ug/mL,0.0192
CONC(=O)c1ccccc1Nc1cc(Nc2cc(C)nn2C(C)C)ncc1Cl (library stock concentration (final ~1000-fold dilution): 10 mM),IRF Lucia reporter activity,[1]; [4],0.345
same,IRF Lucia reporter activity,[1]; agonist: LPS (TLR4) 0.1 ug/mL,0.679
CCS(=O)(=O)Nc1ccc(Oc2ccc(F)cc2F)c(-c2cn(C)c(=O)c3[nH]ccc23)c1 (library stock concentration (final ~1000-fold dilution): 10 mM),IRF Lucia reporter activity,[3]; [4],0.225
same,IRF Lucia reporter activity,[3]; agonist: LPS (TLR4) 0.1 ug/mL,0.107
CNc1cccc(CCOc2ccc3c(c2)CN(CC(F)(F)F)C(=O)C(CC(=O)O)C3)n1 (stereo unspecified) (library stock concentration (final ~1000-fold dilution): 10 mM),IRF Lucia reporter activity,[1]; [4],1.23
same,IRF Lucia reporter activity,[1]; agonist: LPS (TLR4) 0.1 ug/mL,1.19
CNc1cccc(CCOc2ccc3c(c2)CN(CC(F)(F)F)C(=O)C(CC(=O)O)C3)n1 (stereo unspecified),IRF Lucia reporter activity,[2]; [5],1.18
C=C(C)[C@@H]1CC[C@]2(C(=O)O)CC[C@]3(C)[C@H](CC[C@@H]4[C@@]5(C)CC[C@H](O)C(C)(C)[C@@H]5CC[C@]43C)[C@@H]12 (library stock concentration (final ~1000-fold dilution): 10 mM),IRF Lucia reporter activity,[1]; [4],0.325
same,IRF Lucia reporter activity,[1]; agonist: LPS (TLR4) 0.1 ug/mL,1.04
O=c1ccc2cc3ccoc3cc2o1,IRF Lucia reporter activity,[2]; [5],1.07
O=c1ccc2cc3ccoc3cc2o1 (library stock concentration (final ~1000-fold dilution): 10 mM),IRF Lucia reporter activity,[1]; [4],0.975
same,IRF Lucia reporter activity,[1]; agonist: LPS (TLR4) 0.1 ug/mL,1
CN(C)CC/C=C1/c2ccccc2COc2ccc(CC(=O)O)cc21.Cl (library stock concentration (final ~1000-fold dilution): 10 mM),IRF Lucia reporter activity,[1]; [4],1.04
same,IRF Lucia reporter activity,[1]; agonist: LPS (TLR4) 0.1 ug/mL,1.01
CN(C)CC/C=C1/c2ccccc2COc2ccc(CC(=O)O)cc21.Cl,IRF Lucia reporter activity,[2]; [5],1.08
